# Reference: the supplement of paper PMC4604168 (melanoma cell lines)
# The list shows a part of the results. Most values come without repeats; read them as rough.
# Tests used:
# Assay in all cases: cell count relative to DMSO control; melanoma cells; higher = more viable cells
# Details in all cases: library dose: low library concentration; 72 h
# WM115 = tested on: WM115
# WM1716 = tested on: WM1716
# WM1745 = tested on: WM1745
# WM3526 = tested on: WM3526
# WM3619 = tested on: WM3619
# WM451Lu = tested on: WM451Lu
# 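Further: cell number obtained by counting DAPI-stained nuclei in high-throughput microscope images with image analysis software, screen run in 1,536-well plates.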
Compound,cell count (WM115) [%],cell count (WM1716) [%],cell count (WM1745) [%],cell count (WM3526) [%],cell count (WM3619) [%],cell count (WM451Lu) [%]
"Cn1cc(C2=C(c3cn(C4CCN(Cc5ccccn5)CC4)c4ccccc34)C(=O)NC2=O)c2ccccc21 [Enzastaurin] + COc1cc(Nc2ncc(F)c(Nc3ccc4c(n3)NC(=O)C(C)(C)O4)n2)cc(OC)c1OC [Tamatinib] (first compound 0.8 µM, partner dose 0.4 µM)",98.9,87.5,76,95.4,81,107
"Cn1cc(C2=C(c3cn(C4CCN(Cc5ccccn5)CC4)c4ccccc34)C(=O)NC2=O)c2ccccc21 [Enzastaurin] + O=C(O)C(=O)Nc1sc2c(c1C(=O)O)CCNC2 [TCS401] (first compound 0.8 µM, partner dose 1.66667 µM)",108,101,80.9,100,106,131
"Cn1cc(C2=C(c3cn(C4CCN(Cc5ccccn5)CC4)c4ccccc34)C(=O)NC2=O)c2ccccc21 [Enzastaurin] + CO[C@H]1C[C@@H]2CC[C@@H](C)[C@@](O)(O2)C(=O)C(=O)N2CCCC[C@H]2C(=O)O[C@H]([C@H](C)C[C@@H]2CC[C@@H](OCCO)[C@H](OC)C2)CC(=O)[C@H](C)/C=C(\C)[C@@H](O)[C@@H](OC)C(=O)[C@H](C)C[C@H](C)/C=C/C=C/C=C/1C [everolimus] (first compound 0.8 µM, partner dose 0.02 µM)",88.1,94.6,88.5,80.1,75.7,93.1
"C[C@]12O[C@H](C[C@]1(O)CO)n1c3ccccc3c3c4c(c5c6ccccc6n2c5c31)CNC4=O [Lestaurtinib] + Nc1ncn([C@H]2C[C@H](O)[C@@H](CO)O2)c(=O)n1 [decitabine] (first compound 0.004 µM, partner dose 0.1 µM)",73.3,92.4,85.5,82.3,85.2,104
